Results from paper PMC8287954.

Biological target: Hs^1-279-Sp^144-152 chimera•Gemin2 (human | Schizosaccharomyces pombe | not stated) (UniProt Q16637)
Assay: SEC-MALS; Superdex 200 10/300 GL, 0.5 ml/min, room temperature (20°C), 50 mM HEPES-NaOH pH 7.5, 250 mM NaCl, 5 mM DTT; self-association of the SMN•G2 unit, (SMN•G2)n

Substance: Hs^1-279-Sp^144-152 chimera•Gemin2 (from UniProt Q16637 1-279; Q09808 144-152; O14893 1-280) (complex)
- stoichiometry N (minor dimer species): 2
- stoichiometry N (predominant tetramer-octamer species): 8

Some values that stand alone complete this part of the results.
